Results taken from the RNAGym collection of RNA variant scans (doi:10.1093/nar/gkz1192).
The source gives no read counts; variants with many changes may rest on few reads.

B1: CPEB3 Ribozyme (parent)
chain: UAACAGGGGGCCACAGCAGAAGCGUUCACGUCGCAGCCCCUGUCAGAUUCUGGUGAAUCUGCGAAUUCUGCUGUAUAUCUC

Variants of: B1
Assay: self-cleavage, relative activity (ratio to wild type); higher = more cleavage; in vitro, sequencing
Procedure, shortened: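 Barcoded CPEB3 ribozyme mutants, produced by rounds of error-prone PCR, self-cleaved while being transcribed with T7 RNA polymerase for 5 hours at 37°C and during a subsequent 15 min DNase I step before EDTA was added. Sequencing of template-switched cDNA on Illumina gave cleaved and total reads, and DNA sequencing assigned barcodes to variants. Each variant's relative activity is its cleaved/total read fraction divided by the unmutated ribozyme's fraction, averaged across three batches. A variant needed a minimum of 5 reads.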

Variant	self-cleavage
UAACAGGGGGCCGCAGCGGAAGCGUUCACGUCGCAGCCCCUGUCAGAUUCUGGUGGAUCUGAGAAUUCUGCUGUAUAACUC [A13G A18G A56G C62A U78A]	0.11
UAACAGGGGGCCGCAGCGGAAGCGUUCACGUCGCAGCCCCUGUCAGAUUCUGGUGAAUCUGCGGAUUCUGCUGUAUAUCUC [A13G A18G A64G]	0.22
UAACAGGGGGCCGCAGCGGAAGCGUUCACGUCGCAGCCCCUGUCAGAUUCUGGUGAAUCUGCGAAUUCUGCUGUGUAUCUC [A13G A18G A75G]	0.1
UAACAGGGGGCCGCAGCGGAAGGGUUCACGUCGCAGCCCCUGUCAGAUUCUGGUGAAUCUGCGAAUUCCGCUGUAUAUCUC [A13G A18G C23G U69C]	0.16
UAACAGGGGGCCGCAGCGGAAGCGUUCACGUCGCAGCCCUAGUCAGAUUCUGGUGAAUCUGCGAAAUCAGCUGCAUAUCUC [A13G A18G C40U U41A U66A U69A U74C]	0.16
UAACAGGGGGCCGCAGCGGAAGCGUUCACGUCGCAGCCCUUGUCAGAUUCUGGUGAAUCUGCGAAGUCUGCUCCAUAUCUC [A13G A18G C40U U66G G73C U74C]	0.07
UAACAGGGGGCCGCAGCGGAAGCAUUCACGUCGCGGCCCCUGUCUGAUUCUGGUGAAUCUGCGAAUUCUGCUGUAUAUCAC [A13G A18G G24A A35G A45U U80A]	0
UAACAGGGGGCCGCAGCGGAAGCGUUCACGUCACAGCCCCUGUCAGAUUCUGGUGAAUCUGCGAAUCCUGCUGUAUAUCUC [A13G A18G G33A U67C]	0.18
UAACAGGGGGCCGCAGCGGAAGCGUUCACGUCGCAGCCCCUGUCAGAUUCUUGUGAAUCUGCGAAUUCUGCCGUAUAUCAC [A13G A18G G52U U72C U80A]	0.15
UAACAGGGGGCCGCAGCGGAAGCGUUCACGUCGCAGCCCCUGUCAGAUUCUGGUGAAUCUGCUAAUUCUGCUGUAUAUCUC [A13G A18G G63U]	0.37
UAACAGGGGGCCGCAGCGGAAGCGCUCACGUCGCAGCCCCUGACAGAUUCUGGUGAAUCUGCGAAUUCUGAUGUAUAUCUC [A13G A18G U25C U43A C71A]	0.26
UAACAGGGGGCCGCAGCGGAAGCGUACACGUCGCAGCCCCUAUCAGACUCUGGUGAAUCAGCGAAUUCUGCUGUAUAUCUC [A13G A18G U26A G42A U48C U60A]	0.03
UAACAGGGGGCCGCAGCGGAAGCGUCCACGUCGCAGCCCCUGUCAGAUUCUGGUGAAUCUGCGAAUUCUGCUGUAUAUCUC [A13G A18G U26C]	0.37
UAACAGGGGGCCGCAGCGGAAGCGUUCACGGCGCAGCCCCUGUCAGAUUCUGAUGAAUCUGCGAAUUCUGCUGUAUAUCUC [A13G A18G U31G G53A]	0.22
UAACAGGGGGCCGCAGCGGAAGCGUUCACGUCGCAGCCCCCGUCAGGUUCUGGUGAAUCUGCGGAAUCUGCUGUAUAUCUC [A13G A18G U41C A47G A64G U66A]	0.05
UAACAGGGGGCCGCAGCGGAAGCGUUCACGUCGCAGCCCCCGUCAGGUUUUGGUGAAUCUGCGAAUUCUGCUGUAAAUCUC [A13G A18G U41C A47G C50U U76A]	0.09
UAACAGGGGGCCGCAGCGGAAGCGUUCACGUCGCAGCCCCCGCCAGAUUCUGGUGAAUCUGCGAAUUCCGCUGUAUAUCUC [A13G A18G U41C U43C U69C]	0.27

Variant	self-cleavage
UAACAGGGGGCCGCAGCGGAAGCGUUCACGUCGCAGCCCCUGUCAGAUACUGGUGAAUCUGCGAAUUCUGCUGUAUAUCUC [A13G A18G U49A]	0.14
UAACAGGGGGCCGCAGCGGAAGCGUUCACGUCGCAGCCCCUGUCAGAUUCAGGUGGAUCUGCGAAUUCUGCCGUAUAUCCC [A13G A18G U51A A56G U72C U80C]	0.11
UAACAGGGGGCCGCAGCGGAAGCGUUCACGUCGCAGCCCCUGUCAGAUUCUGGUGAAUCAGCGAAUUCAGCGGUAUGUCUC [A13G A18G U60A U69A U72G A77G]	0.14
UAACAGGGGGCCGCAGCGGAAGCGUUCACGUCGCAGCCCCUGUCAGAUUCUGGUGAAUCUGCGAAUUCCGCUGUGUAUCUC [A13G A18G U69C A75G]	1.17
UAACAGGGGGCCGCAGCGGAAGCGUUCACGUCGCAGCCCCUGUCAGAUUCUGGUGAAUCUGCGAAUUCUGCUGUAUAGCUC [A13G A18G U78G]	0.25
UAACAGGGGGCCGCAGCUGUAGCGUUCACGUCGCAGCCCCUGGCAGUUUCUGGUGAAUCUGCGAAUUCUGCUGUAUAUCUC [A13G A18U A20U U43G A47U]	0.07
UAACAGGGGGCCGCAGCUGAGGCAUUCACGUCGCAGCCCCUGUCAGAUUCUGGUGAAUCUGCGAAUUCUGUUGUAUAUCUC [A13G A18U A21G G24A C71U]	0.3
UAACAGGGGGCCGCAGCUGAGGCGUCCACGUUGCAGCCCCUGUCAGAUUCUGGUGAAUCUGCGAAUUCUGCUGUAUAUCUC [A13G A18U A21G U26C C32U]	0.19
UAACAGGGGGCCGCAGCUGAAGCGUUCUCGUCGCAGCCCCUGUCAGAUUCUGGUGAAUCUGCGAAUUCUGCUGUAUAACUC [A13G A18U A28U U78A]	0.23
UAACAGGGGGCCGCAGCUGAAGCGUUCACGUCGCGGCCCCUGCCAGAUUCUGGUGAAUCUGCGAAUUCUGCUGUAUAUCCC [A13G A18U A35G U43C U80C]	0.08
UAACAGGGGGCCGCAGCUGAAGCGUUCACGUCGCGGCCCCUGUCAGAUUCUGGCGAAUCUGCGAAUUCAGCUGUAUACCUC [A13G A18U A35G U54C U69A U78C]	1.04
UAACAGGGGGCCGCAGCUGAAGCGUUCACGUCGCAGCCCCUGUCGGAUUCUGGUGAAUCUGCGUAUUCUGCUGUAUAUCUC [A13G A18U A45G A64U]	0.04
UAACAGGGGGCCGCAGCUGAAGCGUUCACGUCGCAGCCCCUGUCGGAUUCUGGUUAAUCUGCGAAUUCUGCUCUAUGUCUC [A13G A18U A45G G55U G73C A77G]	0.09
UAACAGGGGGCCGCAGCUGAAGCGUUCACGUCGCAGCCCCUGUCAGAUUCUGGUGUAUCUGCAAAUUCUGCUGUAUAUCUC [A13G A18U A56U G63A]	0.3
UAACAGGGGGCCGCAGCUGAAGCGUUCACGUCGCAGCCCCUGUCAGAUUCUGGUGAGUCUGCGGAUUCUGCUGUAUAUCUC [A13G A18U A57G A64G]	0.15
UAACAGGGGGCCGCAGCUGAAGCGUUCACGUCGCAGCCCCUGUCAGAUUCUGGUGAAUCUGCGGAUUCAGCCGUAUAUCUC [A13G A18U A64G U69A U72C]	0.2
UAACAGGGGGCCGCAGCUGAAGCGUUCACGUCGCAGCCCCUGUCAGAUUCUGGUGAAUCUGUGAAUUCUGCUGUAUAUCUC [A13G A18U C62U]	0.2
